Assay results: PMC8539892
No constants are given. Whether binding was seen depends on the method and setting. For some of these results: Binding seen in cells or lysates may run through a third protein. Some entries that bind do so weakly or less than the wild type. For some of these results: Where a sequence is shown, tags or fusion partners need not be part of it.

Chains of the proteins cited; added tags and fusions are not shown. Lines headed by an entry give the natural chain unless they say otherwise; changes in a name come on top. Residues count along the entry.
UniProt P06492, residues 177-240: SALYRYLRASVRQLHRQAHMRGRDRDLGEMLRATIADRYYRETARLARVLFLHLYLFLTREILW
UniProt P50750: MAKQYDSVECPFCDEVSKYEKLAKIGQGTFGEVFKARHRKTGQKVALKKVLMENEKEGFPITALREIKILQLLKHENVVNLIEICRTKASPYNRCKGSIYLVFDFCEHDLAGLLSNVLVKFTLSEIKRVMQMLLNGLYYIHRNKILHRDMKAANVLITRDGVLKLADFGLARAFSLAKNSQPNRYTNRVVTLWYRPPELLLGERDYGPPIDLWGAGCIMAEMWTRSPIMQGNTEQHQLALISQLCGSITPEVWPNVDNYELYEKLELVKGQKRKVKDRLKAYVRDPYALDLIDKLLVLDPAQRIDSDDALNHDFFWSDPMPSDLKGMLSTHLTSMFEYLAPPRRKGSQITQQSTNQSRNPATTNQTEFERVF
UniProt Q9Y5B9: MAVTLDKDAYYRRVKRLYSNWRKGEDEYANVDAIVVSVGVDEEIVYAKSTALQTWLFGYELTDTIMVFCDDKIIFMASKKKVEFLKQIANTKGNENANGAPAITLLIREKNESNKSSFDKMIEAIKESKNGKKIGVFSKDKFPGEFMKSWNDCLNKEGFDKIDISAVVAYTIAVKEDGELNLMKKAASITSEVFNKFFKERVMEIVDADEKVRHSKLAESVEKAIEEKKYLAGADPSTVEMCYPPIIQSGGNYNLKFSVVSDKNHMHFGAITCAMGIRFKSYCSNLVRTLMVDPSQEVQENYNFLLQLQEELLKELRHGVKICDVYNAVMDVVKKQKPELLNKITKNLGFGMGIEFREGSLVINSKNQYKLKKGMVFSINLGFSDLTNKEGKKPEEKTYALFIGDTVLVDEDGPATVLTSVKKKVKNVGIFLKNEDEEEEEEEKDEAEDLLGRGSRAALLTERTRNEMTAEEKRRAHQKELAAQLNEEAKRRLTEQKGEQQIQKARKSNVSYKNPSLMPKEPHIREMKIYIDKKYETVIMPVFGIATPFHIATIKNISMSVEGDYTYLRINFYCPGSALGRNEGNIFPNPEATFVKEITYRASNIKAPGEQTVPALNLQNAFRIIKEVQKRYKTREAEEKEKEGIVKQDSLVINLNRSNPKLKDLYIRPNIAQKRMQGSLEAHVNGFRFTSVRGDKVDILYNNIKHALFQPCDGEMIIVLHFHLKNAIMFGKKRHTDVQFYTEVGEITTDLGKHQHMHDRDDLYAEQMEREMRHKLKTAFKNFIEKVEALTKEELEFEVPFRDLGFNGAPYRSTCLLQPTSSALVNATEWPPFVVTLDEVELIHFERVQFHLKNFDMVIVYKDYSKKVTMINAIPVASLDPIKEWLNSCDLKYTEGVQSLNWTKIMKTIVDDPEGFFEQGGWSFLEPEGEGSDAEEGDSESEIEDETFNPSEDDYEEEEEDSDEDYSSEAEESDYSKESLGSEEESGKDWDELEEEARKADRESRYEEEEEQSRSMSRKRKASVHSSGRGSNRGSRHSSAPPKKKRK
UniProt O60563, residues 1-266: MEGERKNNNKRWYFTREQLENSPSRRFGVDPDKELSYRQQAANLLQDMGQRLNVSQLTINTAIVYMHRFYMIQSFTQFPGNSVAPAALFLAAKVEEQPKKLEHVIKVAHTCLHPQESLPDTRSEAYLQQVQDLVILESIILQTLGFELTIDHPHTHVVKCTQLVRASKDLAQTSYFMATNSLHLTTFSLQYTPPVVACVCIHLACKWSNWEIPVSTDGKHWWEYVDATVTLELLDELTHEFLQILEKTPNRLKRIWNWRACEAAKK
UniProt P21127: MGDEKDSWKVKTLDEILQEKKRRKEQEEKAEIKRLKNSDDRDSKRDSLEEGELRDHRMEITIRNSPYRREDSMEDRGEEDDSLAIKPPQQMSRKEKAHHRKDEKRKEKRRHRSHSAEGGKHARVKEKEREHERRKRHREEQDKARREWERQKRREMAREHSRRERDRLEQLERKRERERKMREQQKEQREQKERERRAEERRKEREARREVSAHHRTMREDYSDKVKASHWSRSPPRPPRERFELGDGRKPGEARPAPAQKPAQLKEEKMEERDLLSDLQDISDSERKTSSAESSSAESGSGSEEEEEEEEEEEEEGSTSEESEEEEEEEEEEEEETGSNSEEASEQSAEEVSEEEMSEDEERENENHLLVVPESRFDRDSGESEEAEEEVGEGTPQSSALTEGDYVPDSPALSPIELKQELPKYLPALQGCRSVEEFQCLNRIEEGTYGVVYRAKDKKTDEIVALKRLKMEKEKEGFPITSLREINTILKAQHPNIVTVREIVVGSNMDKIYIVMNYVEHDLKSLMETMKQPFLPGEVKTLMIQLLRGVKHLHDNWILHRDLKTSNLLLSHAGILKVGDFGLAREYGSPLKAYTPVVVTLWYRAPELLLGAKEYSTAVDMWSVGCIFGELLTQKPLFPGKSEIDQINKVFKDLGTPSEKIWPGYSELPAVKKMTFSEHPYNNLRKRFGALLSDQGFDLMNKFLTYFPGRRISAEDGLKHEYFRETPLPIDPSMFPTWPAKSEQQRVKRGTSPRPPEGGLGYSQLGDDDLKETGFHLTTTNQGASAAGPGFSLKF
UniProt Q15131: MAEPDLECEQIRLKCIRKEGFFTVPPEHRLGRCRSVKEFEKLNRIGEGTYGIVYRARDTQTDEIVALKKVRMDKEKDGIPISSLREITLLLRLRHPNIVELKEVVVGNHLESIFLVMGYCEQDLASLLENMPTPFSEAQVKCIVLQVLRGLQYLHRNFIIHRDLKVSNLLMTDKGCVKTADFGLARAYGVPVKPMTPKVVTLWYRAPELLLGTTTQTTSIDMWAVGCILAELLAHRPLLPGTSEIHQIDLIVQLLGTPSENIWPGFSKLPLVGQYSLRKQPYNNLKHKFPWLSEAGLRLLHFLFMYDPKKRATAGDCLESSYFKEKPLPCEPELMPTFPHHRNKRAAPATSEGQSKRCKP
UniProt P49336: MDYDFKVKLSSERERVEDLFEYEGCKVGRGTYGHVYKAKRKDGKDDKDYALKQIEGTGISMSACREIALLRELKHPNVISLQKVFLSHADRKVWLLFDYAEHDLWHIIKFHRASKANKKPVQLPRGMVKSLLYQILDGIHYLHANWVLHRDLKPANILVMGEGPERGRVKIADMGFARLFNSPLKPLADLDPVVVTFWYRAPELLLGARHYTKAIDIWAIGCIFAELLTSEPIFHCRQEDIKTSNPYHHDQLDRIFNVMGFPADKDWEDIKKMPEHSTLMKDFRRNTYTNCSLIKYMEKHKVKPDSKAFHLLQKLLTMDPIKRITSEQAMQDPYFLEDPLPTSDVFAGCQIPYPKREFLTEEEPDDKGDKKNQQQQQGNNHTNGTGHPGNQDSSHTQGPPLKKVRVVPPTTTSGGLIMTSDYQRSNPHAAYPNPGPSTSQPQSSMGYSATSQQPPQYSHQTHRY
UniProt Q14004: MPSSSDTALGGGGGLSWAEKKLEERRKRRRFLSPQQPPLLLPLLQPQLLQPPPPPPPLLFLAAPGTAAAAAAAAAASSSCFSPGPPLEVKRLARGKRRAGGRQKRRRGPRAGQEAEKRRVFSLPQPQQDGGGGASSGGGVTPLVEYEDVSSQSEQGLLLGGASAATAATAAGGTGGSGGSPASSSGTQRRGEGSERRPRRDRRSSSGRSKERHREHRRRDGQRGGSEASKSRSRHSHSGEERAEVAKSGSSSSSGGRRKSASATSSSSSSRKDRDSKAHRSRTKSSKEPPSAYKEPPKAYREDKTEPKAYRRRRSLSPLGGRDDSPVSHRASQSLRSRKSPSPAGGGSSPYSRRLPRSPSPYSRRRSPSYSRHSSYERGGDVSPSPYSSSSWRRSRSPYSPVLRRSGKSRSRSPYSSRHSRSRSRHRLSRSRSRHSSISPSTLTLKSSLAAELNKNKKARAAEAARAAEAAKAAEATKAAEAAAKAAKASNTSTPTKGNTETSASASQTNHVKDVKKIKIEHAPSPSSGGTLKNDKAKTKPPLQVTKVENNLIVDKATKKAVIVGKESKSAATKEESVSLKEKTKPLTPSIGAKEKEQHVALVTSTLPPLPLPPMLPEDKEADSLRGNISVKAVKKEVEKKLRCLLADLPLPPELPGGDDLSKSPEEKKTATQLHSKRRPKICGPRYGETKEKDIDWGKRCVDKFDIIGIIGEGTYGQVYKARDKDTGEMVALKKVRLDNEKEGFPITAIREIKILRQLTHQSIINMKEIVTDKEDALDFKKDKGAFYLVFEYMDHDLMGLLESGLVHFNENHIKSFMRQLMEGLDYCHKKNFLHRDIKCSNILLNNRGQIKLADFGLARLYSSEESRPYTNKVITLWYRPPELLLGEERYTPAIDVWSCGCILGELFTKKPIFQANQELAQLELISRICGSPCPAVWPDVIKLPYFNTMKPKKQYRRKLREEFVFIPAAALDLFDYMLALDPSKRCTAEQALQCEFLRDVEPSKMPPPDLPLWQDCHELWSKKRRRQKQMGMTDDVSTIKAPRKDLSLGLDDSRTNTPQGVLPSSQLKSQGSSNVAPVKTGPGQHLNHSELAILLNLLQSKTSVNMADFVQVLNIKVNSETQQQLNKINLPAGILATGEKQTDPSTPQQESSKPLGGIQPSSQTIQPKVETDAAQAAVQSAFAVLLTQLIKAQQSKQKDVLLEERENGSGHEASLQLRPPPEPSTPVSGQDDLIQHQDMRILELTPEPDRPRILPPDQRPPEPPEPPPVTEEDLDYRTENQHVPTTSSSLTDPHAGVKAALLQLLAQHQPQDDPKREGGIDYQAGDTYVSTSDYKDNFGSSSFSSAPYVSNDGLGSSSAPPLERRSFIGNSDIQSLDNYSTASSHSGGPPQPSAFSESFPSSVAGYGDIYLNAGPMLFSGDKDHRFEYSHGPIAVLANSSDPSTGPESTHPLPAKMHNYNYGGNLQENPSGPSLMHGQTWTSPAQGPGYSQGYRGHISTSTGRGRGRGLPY
UniProt O75909: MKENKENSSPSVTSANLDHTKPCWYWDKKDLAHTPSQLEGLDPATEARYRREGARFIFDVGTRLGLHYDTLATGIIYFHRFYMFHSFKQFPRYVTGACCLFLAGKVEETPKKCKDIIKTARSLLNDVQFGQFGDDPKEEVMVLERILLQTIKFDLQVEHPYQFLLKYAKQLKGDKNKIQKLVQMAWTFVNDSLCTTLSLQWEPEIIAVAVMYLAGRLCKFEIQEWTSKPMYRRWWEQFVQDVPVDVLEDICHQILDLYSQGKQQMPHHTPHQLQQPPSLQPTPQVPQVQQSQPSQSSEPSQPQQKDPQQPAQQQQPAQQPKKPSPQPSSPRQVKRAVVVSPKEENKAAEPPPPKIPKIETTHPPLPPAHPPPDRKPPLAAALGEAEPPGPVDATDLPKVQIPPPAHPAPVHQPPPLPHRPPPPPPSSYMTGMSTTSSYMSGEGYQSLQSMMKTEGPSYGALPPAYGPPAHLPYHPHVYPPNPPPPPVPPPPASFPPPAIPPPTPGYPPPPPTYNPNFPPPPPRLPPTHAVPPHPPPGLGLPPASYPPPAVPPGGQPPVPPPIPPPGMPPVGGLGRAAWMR

Columns and labels:
His-ICP22^CCR (HSV-1) [1] = target: His-ICP22^CCR (HSV-1) (UniProt P04485); assay: pull-down; His-ICP22^CCR held on nickel beads; GST-tagged proteins from E. coli eluted with reduced glutathione and incubated one by one; Western blot with GST and His-tag antibodies; both purified
His-ICP22^CCR (HSV-1) [2] = target: His-ICP22^CCR (HSV-1) (UniProt P04485); assay: pull-down; His-ICP22^CCR (comparison His-IpgC) on nickel beads, HeLa nuclear extract diluted 1:1 with IP buffer, overnight; Western blot; only the target purified
[3] = target: T1, Flag-ICP22 full length (HSV-1 immediate-early protein ICP22) (HSV-1) (UniProt P04485); assay: co-IP
T1 sequence: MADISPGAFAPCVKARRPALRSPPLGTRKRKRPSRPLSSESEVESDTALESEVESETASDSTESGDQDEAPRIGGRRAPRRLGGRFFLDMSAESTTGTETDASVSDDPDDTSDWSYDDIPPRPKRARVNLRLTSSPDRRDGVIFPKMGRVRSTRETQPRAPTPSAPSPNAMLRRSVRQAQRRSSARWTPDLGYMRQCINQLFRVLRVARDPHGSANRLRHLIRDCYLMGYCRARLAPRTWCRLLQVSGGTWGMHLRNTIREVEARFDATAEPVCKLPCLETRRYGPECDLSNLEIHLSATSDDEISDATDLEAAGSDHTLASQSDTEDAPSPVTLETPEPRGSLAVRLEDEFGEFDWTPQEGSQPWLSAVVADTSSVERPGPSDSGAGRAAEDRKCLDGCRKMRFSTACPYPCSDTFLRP

[4] = target: Flag-ICP22^CCR (core conserved region of HSV-1 ICP22) (HSV-1) (UniProt P04485); assay: co-IP
Flag-VP16^CORE (HSV-1) = Flag-VP16^CORE (HSV-1) (UniProt P06492); assay: co-IP

GST-CDK9^FL (from UniProt P50750 1-372)
binding (His-ICP22^CCR (HSV-1) [1]): binds weakly

FACT complex (SPT16 and SSRP1) (from UniProt Q9Y5B9 1-1047; Q08945 1-709)
binding (His-ICP22^CCR (HSV-1) [2]): binds

GST-Cyclin T1^1-266 (from UniProt O60563 1-266) (domain or fragment)
binding (His-ICP22^CCR (HSV-1) [1]): binds

CDK11B (from UniProt P21127 1-795)
binding (His-ICP22^CCR (HSV-1) [2]): binds

CDK9 (from UniProt P50750 1-372)
binding [3]: binds
binding [4]: binds
binding (Flag-VP16^CORE (HSV-1)): binds
binding (His-ICP22^CCR (HSV-1) [2]): binds

CDK10 (from UniProt Q15131 1-360)
binding (His-ICP22^CCR (HSV-1) [2]): no binding

CDK8 (from UniProt P49336 1-464)
binding (His-ICP22^CCR (HSV-1) [2]): no binding

CDK13 (from UniProt Q14004 1-1512)
binding (His-ICP22^CCR (HSV-1) [2]): binds

Cyclin K (from UniProt O75909 1-580)
binding [3]: binds
binding [4]: binds
binding (His-ICP22^CCR (HSV-1) [2]): binds

B1: Cyclin L1 (protein, UniProt Q9UK58 1-526)
chain: MASGPHSTATAAAAASSAAPSAGGSSSGTTTTTTTTTGGILIGDRLYSEVSLTIDHSLIPEERLSPTPSMQDGLDLPSETDLRILGCELIQAAGILLRLPQVAMATGQVLFHRFFYSKSFVKHSFEIVAMACINLASKIEEAPRRIRDVINVFHHLRQLRGKRTPSPLILDQNYINTKNQVIKAERRVLKELGFCVHVKHPHKIIVMYLQVLECERNQTLVQTAWNYMNDSLRTNVFVRFQPETIACACIYLAARALQIPLPTRPHWFLLFGTTEEEIQEICIETLRLYTRKKPNYELLEKEVEKRKVALQEAKLKAKGLNPDGTPALSTLGGFSPASKPSSPREVKAEEKSPISINVKTVKKEPEDRQQASKSPYNGVRKDSKRSRNSRSASRSRSRTRSRSRSHTPRRHYNNRRSRSGTYSSRSRSRSRSHSESPRRHHNHGSPHLKAKHTRDDLKSSNRHGHKRKKSRSRSQSKSRDHSDAAKKHRHERGHHRDRRERSRSFERSHKSKHHGGSRSGHGRHRR
binding (His-ICP22^CCR (HSV-1) [2]): binds

B2: MEPCE (protein, UniProt Q7L2J0 1-689)
chain: MIEMAAEKEPFLVPAPPPPLKDESGGGGGPTVPPHQEAASGELRGGTERGPGRCAPSAGSPAAAVGRESPGAAATSSSGPQAQQHRGGGPQAQSHGEARLSDPPGRAAPPDVGEERRGGGGTELGPPAPPRPRNGYQPHRPPGGGGGKRRNSCNVGGGGGGFKHPAFKRRRRVNSDCDSVLPSNFLLGGNIFDPLNLNSLLDEEVSRTLNAETPKSSPLPAKGRDPVEILIPKDITDPLSLNTCTDEGHVVLASPLKTGRKRHRHRGQHHQQQQAAGGSESHPVPPTAPLTPLLHGEGASQQPRHRGQNRDAPQPYELNTAINCRDEVVSPLPSALQGPSGSLSAPPAASVISAPPSSSSRHRKRRRTSSKSEAGARGGGQGSKEKGRGSWGGRHHHHHPLPAAGFKKQQRKFQYGNYCKYYGYRNPSCEDGRLRVLKPEWFRGRDVLDLGCNVGHLTLSIACKWGPSRMVGLDIDSRLIHSARQNIRHYLSEELRLPPQTLEGDPGAEGEEGTTTVRKRSCFPASLTASRGPIAAPQVPLDGADTSVFPNNVVFVTGNYVLDRDDLVEAQTPEYDVVLCLSLTKWVHLNWGDEGLKRMFRRIYRHLRPGGILVLEPQPWSSYGKRKTLTETIYKNYYRIQLKPEQFSSYLTSPDVGFSSYELVATPHNTSKGFQRPVYLFHKARSPSH
binding (His-ICP22^CCR (HSV-1) [2]): binds
